# Results taken from publication PMC4336329 (PLoS ONE, 2015).
# Out of some 310,000 compounds screened, about 2,200 (0.71%) showed an effect of 50% or more. The effect is printed as a negative number. The list shows a part of the results.
# Molecular target: human ether-à-go-go-related gene (hERG) potassium channel (human, UniProt Q12809)
# Test: primary screen, population patch clamp on CHO cells stably expressing hERG
# Chain of human ether-à-go-go-related gene (hERG) potassium channel (Q12809 whole entry, looked up): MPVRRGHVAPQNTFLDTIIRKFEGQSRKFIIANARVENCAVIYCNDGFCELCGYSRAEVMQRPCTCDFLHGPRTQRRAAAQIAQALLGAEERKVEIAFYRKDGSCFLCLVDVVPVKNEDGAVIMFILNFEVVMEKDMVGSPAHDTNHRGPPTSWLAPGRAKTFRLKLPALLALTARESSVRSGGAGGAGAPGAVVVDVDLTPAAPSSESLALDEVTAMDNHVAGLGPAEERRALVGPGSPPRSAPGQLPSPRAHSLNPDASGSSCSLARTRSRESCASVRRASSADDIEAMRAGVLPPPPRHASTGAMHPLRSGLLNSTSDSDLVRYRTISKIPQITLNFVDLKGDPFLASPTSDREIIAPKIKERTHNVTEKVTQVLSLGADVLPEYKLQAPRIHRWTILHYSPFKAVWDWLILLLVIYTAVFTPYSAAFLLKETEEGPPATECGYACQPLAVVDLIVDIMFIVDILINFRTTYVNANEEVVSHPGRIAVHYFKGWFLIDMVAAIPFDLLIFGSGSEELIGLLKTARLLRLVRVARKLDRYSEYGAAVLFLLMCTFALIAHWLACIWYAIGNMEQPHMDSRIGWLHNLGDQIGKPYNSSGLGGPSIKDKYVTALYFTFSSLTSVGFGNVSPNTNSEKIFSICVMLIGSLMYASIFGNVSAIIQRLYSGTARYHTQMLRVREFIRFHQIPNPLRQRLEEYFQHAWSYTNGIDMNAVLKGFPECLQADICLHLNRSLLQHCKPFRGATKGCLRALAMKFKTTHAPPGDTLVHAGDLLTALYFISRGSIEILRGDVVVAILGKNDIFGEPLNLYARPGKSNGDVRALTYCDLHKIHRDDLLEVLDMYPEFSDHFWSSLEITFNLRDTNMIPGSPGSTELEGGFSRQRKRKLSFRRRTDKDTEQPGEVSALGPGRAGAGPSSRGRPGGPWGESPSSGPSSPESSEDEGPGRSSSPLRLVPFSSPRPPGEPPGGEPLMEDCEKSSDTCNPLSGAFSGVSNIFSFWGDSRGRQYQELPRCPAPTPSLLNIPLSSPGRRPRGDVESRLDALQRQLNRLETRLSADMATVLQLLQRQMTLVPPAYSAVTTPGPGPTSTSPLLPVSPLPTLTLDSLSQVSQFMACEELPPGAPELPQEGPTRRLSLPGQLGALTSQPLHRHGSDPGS
row,Structure (SMILES),"hERG current change (%, negative = inhibition) at 1uM [%]"
1,CCN1CCN(CCn2c(=S)[nH]c3cc4c(cc3c2=O)OCO4)CC1,8.76
2,Cc1cccc(C(=O)OCC(=O)c2c(C)[nH]c3ccccc23)c1O,13.6
3,C=CCn1c(SCc2ccc(F)cc2)nc2c1c(=O)[nH]c(=O)n2C,10.9
4,O=C(CSc1ccc2nnc(CCNC(=O)c3ccc(F)cc3)n2n1)NCC1CCCO1 (centres unmarked),8.61
5,CCOC(=O)C[C@H]1c2cc(C(F)(F)F)ccc2S(=O)(=O)N1C(C)C,7.53
6,COc1ccc(S(=O)(=O)Nc2c(NC3CCCCC3)c3ccccc3oc2=O)cc1OC,12.4
7,O=C1NC(c2ccccc2O)Nc2ccccc21 (centres unmarked),14.6
8,Cc1ccc(S(=O)(=O)N2CCOCC2)cc1NC(=O)COC(=O)CNC(=O)c1ccc(Cl)cc1Cl,11.8
9,O=C(Nc1cc(Cl)ncn1)c1ccccc1,7.76
10,CCn1c(=O)c(C(=O)Nc2ncccc2O)c(O)c2ccccc21,21
11,Cc1nn(C)c(C)c1CCC(=O)N1CCCC(Nc2ccc(C(C)C)cc2)C1 (centres unmarked),14
12,CC(OC(=O)c1nsc(Cl)c1Cl)C(=O)NCc1cccs1 (centres unmarked),13
13,O=C(CC1SC(=O)N(Cc2ccccc2Cl)C1=O)Nc1nccs1 (centres unmarked),6.06
14,CCOc1cc(-c2nnc(-c3ccco3)o2)cc(OCC)c1OCC,8.69
15,Cn1cc([N+](=O)[O-])c(C(=O)Nc2ccc(C3CCCCC3)cc2)n1,9.65
16,Cc1ccc(OCCn2cc(/C=N/NC(=O)c3ccncc3)c3ccccc32)cc1,-0.0993
17,Cc1ccc(/C=C/C(=O)O)cc1S(=O)(=O)N1CCCCC1,7.44
18,COc1cc(OC)c(OC)cc1CNCc1ccc2c(c1)OCO2,12.3
19,C=C(C)c1ccccc1NC(=O)CCN1C(=O)c2ccccc2S1(=O)=O,16.5
20,COc1cccc2cc(CC(=O)c3ccccc3)c(=O)oc12,11.2
21,COc1cc2[nH]c(=O)n(Cc3ccc(C(=O)NCC4CCCO4)cc3)c(=O)c2cc1OC (centres unmarked),5.93
22,COc1cc(C2C(C#N)=C(N)Oc3cc(C)oc(=O)c32)cc2c1OCO2 (centres unmarked),6.57
23,CCN(CC)c1ccc(NC(=O)CN2CCN(CC(=O)Nc3ccccc3OC)CC2)cc1,-0.407

row,Structure (SMILES),"hERG current change (%, negative = inhibition) at 1uM [%]"
1,Cc1cccc(/C=N/NC(=O)c2cc(-c3cccnc3)nc3ccccc23)c1,5.24
2,C=CCOC(=O)C(C#N)c1nc2ccccc2nc1N1CCN(Cc2ccc3c(c2)OCO3)CC1 (centres unmarked),3.58
3,CCCCCOc1ccc(CN2CCOCC2)cc1Cl.Cl,7.35
4,CCN1CCN(S(=O)(=O)c2ccc(C(C)(C)C)cc2)CC1,13
5,CC1=C/C(=C\c2ccc(Br)o2)C(=O)O1,12.5
6,O=[N+]([O-])c1cccc(Oc2cnccn2)c1,14.5
7,O=C(CN1C(=O)COc2ccccc21)Nc1ccc(F)cc1,11.2
8,O=C(C1CCCO1)N(c1ccc(F)cc1)C1C=CS(=O)(=O)C1 (centres unmarked),15.2
9,O=C1CSc2ccc(S(=O)(=O)CCC(=O)NC3CCCCC3)cc2N1,15.7
10,Cc1ccc2nc(SC(C)C(=O)NCc3ccco3)[nH]c2c1 (centres unmarked),5.91
11,Cc1ccc(CS(=O)(=O)CCC(=O)NCc2ccccc2Cl)cc1,10.3
12,COc1ccc(NC(=O)CN2C(=O)C(C)Oc3ccccc32)c(OC)c1 (centres unmarked),7.11
13,Nn1c(Cc2cccc3ccccc23)nnc1SC1CCOC1=O (centres unmarked),13.3
14,CCOc1ccccc1NC(=O)CSc1nnc(-c2cnccn2)n1C,-0.161
15,COc1ccccc1N(CC(=O)Nc1ccccc1C(=O)NCC(C)C)S(C)(=O)=O,-8.6
16,O=C(O)CSc1ncnc2sc3c(c12)CCCC3,3.75
17,CC(=O)NC(C)c1nc2ccccc2n1CC(=O)N1C(C)CCCC1C (centres unmarked),12.1
18,CCOc1ccc(CNC(=S)Nc2ccccc2)cc1Cl,14.7
19,CC(=O)Nc1nc(=S)ss1,8.23
20,O=C(Nc1cc(SCC(O)CO)cc([N+](=O)[O-])c1)c1ccc(-n2cnnn2)cc1 (centres unmarked),17.4
21,CC(OC(=O)CN1C(=O)NC2(CCCC2)C1=O)C(=O)Nc1cccc(Cl)c1 (centres unmarked),-0.725
22,COc1cccc(C(=O)Cn2c(N3CCCCC3)nc3c2c(=O)n(C)c(=O)n3C)c1,12.2
23,Cc1ccc2nc(-c3ccncc3)[nH]c2c1,16.2

row,Structure (SMILES),"hERG current change (%, negative = inhibition) at 1uM [%]"
1,COCCn1nnnc1C(c1ccc(OC)c(OC)c1)N1CCc2ccccc21 (centres unmarked),1.88
2,O=C(C1CN(S(=O)(=O)c2ccccc2)CCN1S(=O)(=O)c1ccccc1)N1CCCCCC1 (centres unmarked),8.26
3,CCCNC(=O)CN1CCN(c2cc3ccccc3c(Cl)n2)CC1,-4.09
4,O=C(CC(c1ccccc1)c1ccccc1O)NCc1ccccc1Cl (centres unmarked),9
5,COc1cccc(N2CCN(CC(=O)Nc3nc(C)c(C(=O)N(C)C)s3)CC2)c1,15
6,CCCCN1C(=O)/C(=C(/C#N)C(N)=O)c2ccccc21,31.5
7,CC(=O)NC(CC(=O)OCC(=O)Nc1ccc2c(c1)OCO2)c1ccccc1 (centres unmarked),15.2
8,Cc1onc(-c2ccccc2Cl)c1C(=O)Nc1cccnc1,6.71
9,COc1ccc(N=C2S/C(=C\c3cccs3)C(=O)N2CC(C)C)cc1,-1.97
10,O=C(N/N=C\c1ccc(OCC(=O)N2CCCC2)cc1)C(=O)Nc1ccccc1F,-10.6
11,C/C(=N/NC(=O)CNC(=O)c1ccc2c(c1)OCO2)c1ccc2c(c1)CCCC2,7.14
12,COc1ccc(NC(=S)Nc2ccc(OC(F)F)cc2)cn1,-0.51
13,CC(=O)Nc1ccc(SC[C@H](Cc2ccccc2)N2CCN(CCc3ccccc3)CCC2=O)cc1,4.37
14,COC(=O)CNC(=O)C1CCN(S(=O)(=O)c2cccc3nsnc23)CC1,17.2
15,N#Cc1nc(COc2ccc(F)cc2)oc1N1CCN(Cc2ccccc2)CC1,-51
16,Cc1c(C(=O)NNc2c(Cl)cccc2Cl)n(C)oc1=O,12.6
17,Cc1nccc2c1[nH]c1ccc(Br)cc12,10.4
18,COCCNCC(O)CON=C1c2ccccc2-c2ccccc21 (centres unmarked),4.17
19,COc1ccc(NC(=O)COc2ccccc2)cc1Cl,13.6
20,C[C@H](NC(=O)NCc1ccc(F)cc1)C(=O)O,6.79
21,CC12CCC(C(=O)N(NC(=O)c3ccccc3O)C1=O)C2(C)C (centres unmarked),11.1
22,CC12COC3(C(=O)Nc4ccccc4)CC1CCC32C (centres unmarked),16.2
23,CN(C)c1ccc(/C=C/C(=O)c2ccccc2O)cc1,16.7

row,Structure (SMILES),"hERG current change (%, negative = inhibition) at 1uM [%]"
1,Cc1ccc(CCNC(=O)C2CCCN(S(=O)(=O)c3c(C)noc3/C=C/N(C)C)C2)cc1 (centres unmarked),10.3
2,Cc1ccc(-c2nc(C=Nc3cccc(C)c3)c(O)o2)cc1,23.4
3,CCC1CCc2sc(C(=O)OCC(=O)N(CCOC)c3c(N)n(Cc4ccccc4)c(=O)[nH]c3=O)cc2C1 (centres unmarked),-2.31
4,CN(CCCC1CCCC1)C(=O)CC1C(=O)NCCN1Cc1cccc(F)c1F (centres unmarked),3.4
5,ON1C(c2ccc(Cl)cc2Cl)N(O)[C@H]2CCCC[C@H]21 (some centres unmarked),10.2
6,Cc1ccc(S(=O)(=O)N(C)C)cc1NC(=O)COC(=O)c1sc2cc(Cl)ccc2c1Cl,10.1
7,C=C(C)CN(CC)C(=O)CSc1nc(O)cc(=O)n1C1CCCC1,20.7
8,O=S(=O)(c1ccccc1)c1nc(-c2ccco2)oc1NCCCN1CCOCC1,5.16
9,COCCNC(=O)/C(C#N)=C/c1ccc(O)c([N+](=O)[O-])c1,11.5
10,CN(C)c1nccc(Nc2ccccc2)c1C#N,14.1
11,CC(=O)c1c(C)oc2ccc(N(C(C)=O)S(=O)(=O)c3cccc4cccnc34)cc12,10.7
12,O=S(=O)(c1ccc(Br)cc1)n1ccc2ccccc21,12.5
13,O=C(COC(=O)c1ccc2c(c1)S(=O)(=O)N=C1CCCCCN12)NCc1cccs1,9.64
14,COc1ccc2nc(NC(=O)CCc3nc(C4=CCN(C)CC4)no3)sc2c1,6.55
15,CC(=O)N/C(=C/c1ccc(OS(=O)(=O)c2ccc(C)cc2)cc1)C(=O)NCCO,0.32
16,O=C(NNS(=O)(=O)c1ccc(F)cc1)c1cnn(-c2ccccc2)c1C(F)(F)F,1.13
17,CCOC(=O)c1nnn(CC(=O)Nc2cccc(Cl)c2C)c1C(=O)OCC,8.44
18,O=c1[nH][nH]c(C(F)(F)F)c1C=NCc1cccc(Cl)c1,5.43
19,CCOc1ccc(NC(=O)CN(C)CC(=O)Nc2ccccc2C#N)cc1OCC,14.1
20,CCN(c1ccccc1)S(=O)(=O)c1ccc(NN)nc1,7.09
